{"source": "PubChem BioAssay AID485364", "about": "(National Center for Advancing Translational Sciences (NCATS), 2010)", "note": "Out of some 360,000 compounds screened, about 11,000 (3.1%) were called active. The shares of active, inactive and inconclusive entries below differ from those in the screen. Calls come from the whole dose curve; as a rule, active = well fitted inhibition curve with a large enough effect; inconclusive = small, poorly fitted or top-dose-only effect; inactive = no such curve, though single readings can be large or run the other way. No potency is given beside an inconclusive call; the fits are too rough. % is set by controls: 0 for no effect and ±100 for the full control effect; potency is the fitted concentration of half-maximal effect; tags give direction and shape of the fitted curve."}
{"target": "Schistosoma mansoni thioredoxin glutathione reductase (TGR) (UniProt Q962Y6)", "experiment": "qHTS Assay for the Inhibitors of Schistosoma Mansoni Peroxiredoxins; note: nearly all actives have a fitted effect of over 60% in size", "conditions": "purified TGR, DTNB reduction, TNB absorbance 405 nm; activity change, negative = inhibition: at 114 µM (top of the series) unless noted", "in_short": "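First, TGR (20 nM dispensed) and NADPH were mixed with compound. Second, a 15 min room-temperature incubation followed. Third, further NADPH and then DTNB were added to start the reaction. Finally, TNB absorbance was monitored kinetically.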"}
{"smiles": "CCOC(=O)c1snc(C(=O)NC2CCCCC2)c1N", "activity change, negative = inhibition": "inactive: 5.96%"}
{"smiles": "Cc1ccc(S(=O)(=O)N2CCN(Cc3ccccc3)CC2)s1", "activity change, negative = inhibition": "inactive: -15.1%"}
{"smiles": "CC1=C(C#N)C(=O)NC(=O)/C1=C\\c1ccc(-c2cc(C)c(C)cc2[N+](=O)[O-])o1", "Potency": "active: 3.55 µM"}
{"smiles": "O=C(c1cccc([N+](=O)[O-])c1)N1CCN(c2ncccn2)CC1", "activity change, negative = inhibition": "inactive: 0%"}
{"smiles": "CC(=O)Nc1ccc(S(=O)(=O)N2CCCC2C(=O)O)cc1", "note": "(stereo unspecified)", "Potency": "inconclusive [inhibitor, partial curve, poor fit]"}
{"smiles": "CCOc1ccccc1CN1CCNC(=O)C1CC(=O)NCc1ccccn1", "note": "(stereo unspecified)", "Potency": "inconclusive [inhibitor, partial curve]"}
{"smiles": "CCCCCCc1cc2cc(C(=O)Nc3cccc(OC)c3)c(=O)oc2cc1O", "activity change, negative = inhibition": "inactive: -19.9%"}
{"smiles": "CC(=O)c1cccc(S(=O)(=O)N2CCC(C(=O)O)CC2)c1", "Potency": "inconclusive [inhibitor, full curve]"}
{"smiles": "O=C(CCCN1C(=O)/C(=C\\c2ccco2)SC1=S)Nc1cccc2ccccc12", "Potency": "inconclusive [inhibitor, partial curve]"}
{"smiles": "Cc1ccc2[nH]c(=O)c(CN(Cc3cccnc3)Cc3nnnn3CCN3CCOCC3)cc2c1", "Potency": "inconclusive [inhibitor, full curve, poor fit]"}
{"smiles": "Cc1ccc2c(c1)C(c1ccccc1)N(C(=O)c1ccc(Br)cc1)CC(=O)N2", "note": "(stereo unspecified)", "activity change, negative = inhibition": "inactive: -2.55%"}
{"smiles": "COc1ccc(-c2nc(CNC(=O)Nc3ccccc3)c(C)o2)c(OC)c1", "Potency": "inconclusive [inhibitor, single point]"}
{"smiles": "Cc1cc(C(=O)OCC(=O)N2c3ccccc3CC2C)c(C)o1", "note": "(stereo unspecified)", "Potency": "active: 25.1 µM"}
{"smiles": "CCOC(=O)CNC(=O)N1CCCC(C(=O)c2ccccc2SC)C1", "note": "(stereo unspecified)", "activity change, negative = inhibition": "inactive: 3.42%"}
{"smiles": "COC(=O)[C@@H]1CCCN1Cc1c(C(=O)N2CCCCC2)nc2c(C)cccn12", "Potency": "inconclusive [inhibitor, single point]"}
{"smiles": "CCc1cc(C(=O)c2ccc(OC)cc2)c(NC(=O)CN2CCCC2)s1", "Potency": "inconclusive [inhibitor, partial curve]"}
{"smiles": "Cc1ccc(NC(=O)CCc2nnc3ccc(N4CCC(C)CC4)nn23)nc1", "activity change, negative = inhibition": "inactive: 7.2%"}
{"smiles": "O=C(NCCc1nc2ccccc2n1Cc1ccccc1F)c1ccc(F)cc1", "activity change, negative = inhibition": "inactive: -2.56%"}
{"smiles": "CCOc1ccc(/C=N/N2C(=O)C(CC(=O)Nc3ccc(F)cc3F)SC2=NC)cc1OC", "note": "(stereo unspecified)", "activity change, negative = inhibition": "inactive: -1.3%"}
{"smiles": "CCOCC(O)CNc1ccccc1", "note": "(stereo unspecified)", "activity change, negative = inhibition": "inactive: 0.846%"}
{"smiles": "CC(Nc1ccc(F)cc1)=[N+](C)CCNS(=O)(=O)c1ccc(Cl)cc1", "Potency": "inconclusive [inhibitor, partial curve, poor fit]"}
{"smiles": "CCOC(=O)c1c(NC(=O)COC(=O)c2nccnc2N)sc2c1CCC2", "Potency": "inconclusive [inhibitor, full curve]"}
{"smiles": "CN(Cc1cccs1)C(=O)c1ccc(S(=O)(=O)NCc2ccco2)cc1", "Potency": "inconclusive [inhibitor, partial curve]"}
{"smiles": "CCOc1ccccc1NC(=O)Nc1ccc(Br)cc1C", "activity change, negative = inhibition": "inactive: 0.804%"}
{"smiles": "COc1ccc(NS(=O)(=O)c2ccc(N3CCOCC3)c(N)c2)cc1", "Potency": "inconclusive [inhibitor, single point]"}
{"smiles": "CS(=O)(=O)c1ccc2c(c1)sc1nc(=O)c(/C=C3/C=CC(=O)C(O)=C3)c(N)n12", "Potency": "active: 44.7 µM"}
{"smiles": "CCOc1c2ccc(C(=O)NC3CCCc4ccccc43)cc2nn1C", "note": "(stereo unspecified)", "activity change, negative = inhibition": "inactive: -23.9%"}
{"smiles": "COc1cc(C(=O)OCC(C)=O)cc(NC(=O)c2ccco2)c1OC", "activity change, negative = inhibition": "inactive: 1.6%"}
{"smiles": "O=C1COc2ccc(C(=O)COC(=O)c3cc(S(=O)(=O)N4CCOCC4)ccc3F)cc2N1", "Potency": "inconclusive [inhibitor, full curve, poor fit]"}
{"smiles": "COc1ccc(N2CC(C(=O)Nc3nccs3)CC2=O)cc1", "note": "(stereo unspecified)", "Potency": "inconclusive [inhibitor, partial curve, poor fit]"}
{"smiles": "Cc1ccc(NC2=C(Cl)C(=O)OC2OC(=O)c2ccc(C)cc2)cc1", "note": "(stereo unspecified)", "activity change, negative = inhibition": "inactive: -13%"}
{"smiles": "CSc1cccc(NC(=S)NC(=O)CCc2ccccc2)c1", "Potency": "inconclusive [inhibitor, full curve]"}
{"smiles": "CNC(=S)Nc1ccccc1-c1ccccc1", "Potency": "inconclusive [inhibitor, partial curve]"}
{"smiles": "O=C(c1cc2c(=O)n3ccccc3nc2s1)N1CCc2ccccc2C1", "Potency": "inconclusive [inhibitor, partial curve]"}
{"smiles": "O=C(CCNc1cc(Cl)cc(Cl)c1)c1cccs1", "Potency": "inconclusive [inhibitor, full curve, poor fit]"}
{"smiles": "CCOC(=O)c1c(-c2ccco2)csc1NC(=O)COC(=O)c1cnccn1", "Potency": "active: 7.94 µM"}
{"smiles": "COc1cccc(-c2nnc(SCC(=O)N(C)C3CCCCC3)o2)c1", "activity change, negative = inhibition": "inactive: 5.42%"}
{"smiles": "CCOC(=O)C(C(=O)OCC)C1OC(=O)c2cc3c(cc21)C(=O)OC3C(C(=O)OCC)C(=O)OCC", "note": "(stereo unspecified)", "Potency": "inconclusive [inhibitor, partial curve]"}
{"smiles": "Cc1ccc(C2=NN(C(=O)CSc3nc4ncc(Cl)cc4[nH]3)C(c3ccco3)C2)cc1", "note": "(stereo unspecified)", "Potency": "active: 14.1 µM"}
{"smiles": "O=[As](O)(O)c1ccc(N=Nc2ccc(O)cc2)cc1", "Potency": "active: 50.1 µM"}
{"smiles": "O=C1c2ccccc2C(Nc2ccc3nc(-c4cccnc4)[nH]c3c2)N1Cc1ccco1", "note": "(stereo unspecified)", "Potency": "inconclusive [inhibitor, partial curve]"}
{"smiles": "O=C(O)c1ccccc1-c1nc2ccccc2[nH]1", "activity change, negative = inhibition": "inactive: -9.96%"}
{"smiles": "CCOc1ccc(-c2cnc3n2CCCCC3)cc1", "Potency": "inconclusive [inhibitor, full curve, poor fit]"}
{"smiles": "CCOC(=O)C1CCN(C(=O)c2cn(C)c(=O)c3cc(OC)c(OC)cc23)CC1", "Potency": "inconclusive [inhibitor, single point]"}
{"smiles": "COc1cccc(N2CCN(C(=O)c3ccc(CS(=O)Cc4ccc(Cl)cc4)o3)CC2)c1", "note": "(stereo unspecified)", "Potency": "inconclusive [inhibitor, partial curve]"}
{"smiles": "O=C(N/N=C/c1ccc2c(c1)OCO2)c1ccc2ccccc2n1", "activity change, negative = inhibition": "inactive: -0.806%"}
{"smiles": "Cc1cc2oc(C(=O)N(Cc3ccco3)C3CCS(=O)(=O)C3)cc(=O)c2cc1Cl", "note": "(stereo unspecified)", "Potency": "active: 50.1 µM"}
{"smiles": "O=C1CCCN1CCCNC(=S)Nc1ccccc1", "Potency": "inconclusive [inhibitor, partial curve]"}
{"smiles": "Cc1ccc(C)n1-c1ccc(C(=O)N2CCOCC2)cc1", "Potency": "active: 8.91 µM"}
{"smiles": "C=CCS(=O)(=O)c1nc2ccccc2s1", "Potency": "active: 14.1 µM"}
{"smiles": "O=C(/C=C/c1cccc([N+](=O)[O-])c1)NCCSCc1ccco1", "Potency": "inconclusive [inhibitor, partial curve]"}
{"smiles": "CC(C)(C)c1ccc(CN2N=Nc3ccccc3S2(=O)=O)cc1", "Potency": "active: 12.6 µM"}
{"smiles": "O=C(COC(=O)c1cc(-c2ccco2)nc2ccccc12)NCc1ccccc1", "Potency": "inconclusive [inhibitor, full curve]"}
{"smiles": "O=c1cc(CN2CCCc3ccccc32)nc2sccn12", "Potency": "active: 28.2 µM"}
{"smiles": "Cc1ccc(S(=O)(=O)ON2C(=O)c3ccccc3C2=O)c(C)c1", "Potency": "active: 1.41 µM"}
{"smiles": "CCOC(=O)c1cc(S(=O)(=O)Nc2ccccc2)[nH]n1", "activity change, negative = inhibition": "inactive: 9.79%"}
{"smiles": "Cn1c(N)c(C#N)c2c(c1=S)CSC(C)(C)C2", "Potency": "active: 12.6 µM"}
{"smiles": "O=C(COC(=O)Cc1cccc(C(F)(F)F)c1)NCc1ccco1", "Potency": "inconclusive [inhibitor, partial curve]"}
{"smiles": "CCCCC1NC(C(=O)O)CS1", "note": "(stereo unspecified)", "Potency": "inconclusive [inhibitor, single point]"}
{"smiles": "O=C(N/N=C\\C1CC=CCC1)c1ccc(Br)o1", "note": "(stereo unspecified)", "Potency": "inconclusive [inhibitor, partial curve]"}
{"smiles": "O=C(O)CC1C(=O)NCCN1CCCc1ccccc1", "note": "(stereo unspecified)", "Potency": "inconclusive [inhibitor, partial curve]"}
{"smiles": "CCN(C(=O)CCS(=O)(=O)c1cc2c(cc1Cl)NC(=O)CO2)c1ccccc1", "activity change, negative = inhibition": "inactive: 5.87%"}
{"smiles": "O=C(NCc1ccccn1)Nc1cccc(F)c1", "activity change, negative = inhibition": "inactive: -2.09%"}
{"smiles": "O=C(O)/C=C/C(=O)Nc1ccc(F)cc1F", "Potency": "inconclusive [inhibitor, single point]"}
{"smiles": "S=c1nc(-c2csc3c2CCCC3)[nH][nH]1", "Potency": "active: 35.5 µM"}
{"smiles": "Cc1nc2ccn(Cc3ccco3)c(=O)c2cc1C(=O)NCc1ccc(Cl)cc1", "Potency": "inconclusive [inhibitor, full curve]"}
{"smiles": "CC[C@@H]1CC=C[C@H]2[C@H]1C(=O)N(Cc1ccccc1)[C@H]2c1ccoc1", "Potency": "inconclusive [inhibitor, partial curve, poor fit]"}
{"smiles": "O=C(Nc1ccc(Cl)cc1)NC1CCCC1Cc1ccco1", "note": "(stereo unspecified)", "Potency": "active: 44.7 µM"}
{"smiles": "S=C(Nc1ccc2nsnc2c1)NC1CCCCC1", "Potency": "inconclusive [inhibitor, partial curve]"}
{"smiles": "Cc1cc(/C=C2/NC(=O)NC2=O)c(C)n1-c1ccc(N2CCOCC2)cc1", "Potency": "inconclusive [inhibitor, full curve, poor fit]"}
{"smiles": "O=C(CCCN1C(=O)/C(=C/c2ccco2)SC1=S)Nc1ccccc1C(=O)O", "Potency": "inconclusive [inhibitor, partial curve]"}
{"smiles": "Cc1ccc(S(=O)(=O)CCC(=O)Nc2nc(-c3ccccn3)cs2)cc1", "activity change, negative = inhibition": "inactive: -16.6%"}
{"smiles": "COCCNC(=S)N1CCN(c2nc3ccccc3s2)CC1", "Potency": "inconclusive [inhibitor, single point]"}
{"smiles": "COC(=O)c1ccccc1N=Cc1c(O)[nH]c(=S)[nH]c1=O", "Potency": "inconclusive [inhibitor, partial curve]"}
{"smiles": "COC(=O)CCC(=O)OC1(C)C(=O)C2=CN(CC(C)C)C(c3ccc(OC)cc3)=CC2=C(Br)C1=O", "note": "(stereo unspecified)", "Potency": "inconclusive [inhibitor, partial curve]"}
{"smiles": "COc1ccc(OC)c(NC(=O)c2nc(S(=O)(=O)Cc3ccc(F)cc3)ncc2Cl)c1", "Potency": "active: 3.16 µM"}
